Some of the results follow.
Columns and labels:
Experiment in all cases: glycan array binding signal (z-score within array); higher = stronger binding
Settings in all cases: glycan notation: IUPAC condensed, linker removed
[1] = molecular target: Fuc(a1-2)Gal6S(b1-3)GlcNAc6S
Method in brief: (§1)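 Negative Z-scores can be read as non-binding. The Z-score is calculated within each array and then averaged across arrays of one protein sequence at different concentrations or buffers and across linkers. Arrays, 3228 in all, were curated from the Consortium for Functional Glycomics database and kept only where the protein sequence was available.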

[2] = molecular target: Fuc(a1-2)Gal6S(b1-4)Glc
Method in brief: as §1

[3] = molecular target: Fuc(a1-2)Gal6S(b1-4)Glc6S
Method in brief: as §1

[4] = molecular target: Fuc(a1-2)[Gal(a1-3)]Gal
Method in brief: as §1

[5] = molecular target: Fuc(a1-2)[Gal(a1-3)]Gal(b1-3)GalNAc
Method in brief: as §1

[6] = molecular target: Fuc(a1-2)[Gal(a1-3)]Gal(b1-3)GalNAc(b1-3)Gal(a1-4)Gal(b1-4)Glc
Method in brief: as §1

[7] = molecular target: Fuc(a1-2)[Gal(a1-3)]Gal(b1-3)GlcNAc
Method in brief: as §1

[8] = molecular target: Fuc(a1-2)[Gal(a1-3)]Gal(b1-3)GlcNAc(b1-2)Man(a1-3)[Fuc(a1-2)[Gal(a1-3)]Gal(b1-3)GlcNAc(b1-2)Man(a1-6)]Man(b1-4)GlcNAc(b1-4)GlcNAc
Method in brief: as §1

[9] = molecular target: Fuc(a1-2)[Gal(a1-3)]Gal(b1-3)GlcNAc(b1-2)Man(a1-3)[Fuc(a1-2)[Gal(a1-3)]Gal(b1-3)GlcNAc(b1-2)Man(a1-6)]Man(b1-4)GlcNAc(b1-4)[Fuc(a1-6)]GlcNAc
Method in brief: as §1

[10] = molecular target: Fuc(a1-2)[Gal(a1-3)]Gal(b1-3)GlcNAc(b1-3)GalNAc
Method in brief: as §1

[11] = molecular target: Fuc(a1-2)[Gal(a1-3)]Gal(b1-3)GlcNAc(b1-6)GalNAc
Method in brief: as §1

[12] = molecular target: Fuc(a1-2)[Gal(a1-3)]Gal(b1-4)Glc
Method in brief: as §1

[13] = molecular target: Fuc(a1-2)[Gal(a1-3)]Gal(b1-4)GlcNAc
Method in brief: as §1

[14] = molecular target: Fuc(a1-2)[Gal(a1-3)]Gal(b1-4)GlcNAc(b1-2)Man
Method in brief: as §1

[15] = molecular target: Fuc(a1-2)[Gal(a1-3)]Gal(b1-4)GlcNAc(b1-2)Man(a1-3)[Fuc(a1-2)[Gal(a1-3)]Gal(b1-4)GlcNAc(b1-2)Man(a1-6)]Man(b1-4)GlcNAc(b1-4)GlcNAc
Method in brief: as §1

[16] = molecular target: Fuc(a1-2)[Gal(a1-3)]Gal(b1-4)GlcNAc(b1-2)Man(a1-3)[Fuc(a1-2)[Gal(a1-3)]Gal(b1-4)GlcNAc(b1-2)Man(a1-6)]Man(b1-4)GlcNAc(b1-4)[Fuc(a1-6)]GlcNAc
Method in brief: as §1

[17] = molecular target: Fuc(a1-2)[Gal(a1-3)]Gal(b1-4)GlcNAc(b1-3)GalNAc
Method in brief: as §1

[18] = molecular target: Fuc(a1-2)[Gal(a1-3)]Gal(b1-4)GlcNAc(b1-3)[Fuc(a1-2)[Gal(a1-3)]Gal(b1-4)GlcNAc(b1-6)]GalNAc
Method in brief: as §1

[19] = molecular target: Fuc(a1-2)[Gal(a1-3)]Gal(b1-4)GlcNAc(b1-6)GalNAc
Method in brief: as §1

[20] = molecular target: Fuc(a1-2)[Gal(a1-3)]Gal(b1-4)[Fuc(a1-3)]Glc
Method in brief: as §1

[21] = molecular target: Fuc(a1-2)[Gal(a1-3)]Gal(b1-4)[Fuc(a1-3)]GlcNAc
Method in brief: as §1

[22] = molecular target: Fuc(a1-2)[Gal(a1-3)]Gal(b1-4)[Fuc(a1-3)]GlcNAc(b1-3)GalNAc
Method in brief: as §1

[23] = molecular target: Fuc(a1-2)[Gal(a1-4)]Gal(b1-4)GlcNAc
Method in brief: as §1

[24] = molecular target: Fuc(a1-2)[GalNAc(a1-3)]Gal
Method in brief: as §1

[25] = molecular target: Fuc(a1-2)[GalNAc(a1-3)]Gal(b1-3)GalNAc(a1-3)[Fuc(a1-2)]Gal(b1-4)GlcNAc
Method in brief: as §1

[26] = molecular target: Fuc(a1-2)[GalNAc(a1-3)]Gal(b1-3)GalNAc(b1-3)Gal(a1-4)Gal(b1-4)Glc
Method in brief: as §1

[27] = molecular target: Fuc(a1-2)[GalNAc(a1-3)]Gal(b1-3)GlcNAc
Method in brief: as §1

[28] = molecular target: Fuc(a1-2)[GalNAc(a1-3)]Gal(b1-3)GlcNAc(b1-2)Man(a1-3)[Fuc(a1-2)[GalNAc(a1-3)]Gal(b1-3)GlcNAc(b1-2)Man(a1-6)]Man(b1-4)GlcNAc(b1-4)GlcNAc
Method in brief: as §1

[29] = molecular target: Fuc(a1-2)[GalNAc(a1-3)]Gal(b1-3)GlcNAc(b1-2)Man(a1-3)[Fuc(a1-2)[GalNAc(a1-3)]Gal(b1-3)GlcNAc(b1-2)Man(a1-6)]Man(b1-4)GlcNAc(b1-4)[Fuc(a1-6)]GlcNAc
Method in brief: as §1

[30] = molecular target: Fuc(a1-2)[GalNAc(a1-3)]Gal(b1-3)GlcNAc(b1-3)GalNAc
Method in brief: as §1

[31] = molecular target: Fuc(a1-2)[GalNAc(a1-3)]Gal(b1-3)GlcNAc(b1-6)GalNAc
Method in brief: as §1

[32] = molecular target: Fuc(a1-2)[GalNAc(a1-3)]Gal(b1-4)Glc
Method in brief: as §1

[33] = molecular target: Fuc(a1-2)[GalNAc(a1-3)]Gal(b1-4)GlcNAc
Method in brief: as §1

[34] = molecular target: Fuc(a1-2)[GalNAc(a1-3)]Gal(b1-4)GlcNAc(b1-2)Man
Method in brief: as §1

[35] = molecular target: Fuc(a1-2)[GalNAc(a1-3)]Gal(b1-4)GlcNAc(b1-2)Man(a1-3)[Fuc(a1-2)[GalNAc(a1-3)]Gal(b1-4)GlcNAc(b1-2)Man(a1-6)]Man(b1-4)GlcNAc(b1-4)GlcNAc
Method in brief: as §1

[36] = molecular target: Fuc(a1-2)[GalNAc(a1-3)]Gal(b1-4)GlcNAc(b1-2)Man(a1-3)[Fuc(a1-2)[GalNAc(a1-3)]Gal(b1-4)GlcNAc(b1-2)Man(a1-6)]Man(b1-4)GlcNAc(b1-4)[Fuc(a1-6)]GlcNAc
Method in brief: as §1

[37] = molecular target: Fuc(a1-2)[GalNAc(a1-3)]Gal(b1-4)GlcNAc(b1-3)Gal(b1-4)GlcNAc
Method in brief: as §1

[38] = molecular target: Fuc(a1-2)[GalNAc(a1-3)]Gal(b1-4)GlcNAc(b1-3)Gal(b1-4)GlcNAc(b1-3)Gal(b1-4)GlcNAc
Method in brief: as §1

[39] = molecular target: Fuc(a1-2)[GalNAc(a1-3)]Gal(b1-4)GlcNAc(b1-3)GalNAc
Method in brief: as §1

[40] = molecular target: Fuc(a1-2)[GalNAc(a1-3)]Gal(b1-4)GlcNAc(b1-3)[Fuc(a1-2)[GalNAc(a1-3)]Gal(b1-4)GlcNAc(b1-6)]GalNAc
Method in brief: as §1

[41] = molecular target: Fuc(a1-2)[GalNAc(a1-3)]Gal(b1-4)GlcNAc(b1-6)GalNAc
Method in brief: as §1

[42] = molecular target: Fuc(a1-2)[GalNAc(a1-3)]Gal(b1-4)[Fuc(a1-3)]GlcNAc
Method in brief: as §1

[43] = molecular target: Fuc(a1-2)[GalNAc(a1-3)]Gal(b1-4)[Fuc(a1-3)]GlcNAc(b1-3)GalNAc
Method in brief: as §1

[44] = molecular target: Fuc(a1-2)[GalNAc(a1-4)]Gal(b1-4)GlcNAc
Method in brief: as §1

[45] = molecular target: Fuc(a1-2)[GalNAc(b1-3)]Gal
Method in brief: as §1

B1: LecB LY19 (Pseudomonas aeruginosa) (protein)
chain: MATQGVFTLPANTQFGVTAFANSAGTQTVNVQVNNETVATFTGQSTNNGIIGSKVLNSGGGGKVQILVSVNGRSSDLVSAQVILANELNFALVGSEDSTDNDYNDAVVVINWPLG
For B1, the “glycan array binding signal (z-score)” value [1] was 0.163, the “glycan array binding signal (z-score)” value [2] was 0.999 and the “glycan array binding signal (z-score)” value [3] was 2.08. For the same binder, the “glycan array binding signal (z-score)” value [4] was 1.31, the “glycan array binding signal (z-score)” value [5] was -0.521 and the “glycan array binding signal (z-score)” value [6] was -0.512. For the same binder, the “glycan array binding signal (z-score)” value [7] was -0.452, the “glycan array binding signal (z-score)” value [8] was -0.2 and the “glycan array binding signal (z-score)” value [9] was 0.089. For the same binder, the “glycan array binding signal (z-score)” value [10] was -0.531, the “glycan array binding signal (z-score)” value [11] was -0.528 and the “glycan array binding signal (z-score)” value [12] was 0.02. The “glycan array binding signal (z-score)” value [13] was 0.23, the “glycan array binding signal (z-score)” value [14] was 9.41 and the “glycan array binding signal (z-score)” value [15] was -0.022. For the same binder, the “glycan array binding signal (z-score)” value [16] was 0.437, the “glycan array binding signal (z-score)” value [17] was -0.341 and the “glycan array binding signal (z-score)” value [18] was -0.152. The “glycan array binding signal (z-score)” value [19] was -0.52, the “glycan array binding signal (z-score)” value [20] was 0.738 and the “glycan array binding signal (z-score)” value [21] was 1.39. The “glycan array binding signal (z-score)” value [22] was 0.554, the “glycan array binding signal (z-score)” value [23] was 1.6 and the “glycan array binding signal (z-score)” value [24] was 0.034. The “glycan array binding signal (z-score)” value [25] was -0.497, the “glycan array binding signal (z-score)” value [26] was -0.53 and the “glycan array binding signal (z-score)” value [27] was -0.265. The “glycan array binding signal (z-score)” value [28] was -0.389, the “glycan array binding signal (z-score)” value [29] was 0.27 and the “glycan array binding signal (z-score)” value [30] was -0.542. For the same binder, the “glycan array binding signal (z-score)” value [31] was -0.528, the “glycan array binding signal (z-score)” value [32] was -0.432 and the “glycan array binding signal (z-score)” value [33] was -0.375. For the same binder, the “glycan array binding signal (z-score)” value [34] was -0.497, the “glycan array binding signal (z-score)” value [35] was -0.36 and the “glycan array binding signal (z-score)” value [36] was 0.035. For the same binder, the “glycan array binding signal (z-score)” value [37] was -0.099, the “glycan array binding signal (z-score)” value [38] was -0.443 and the “glycan array binding signal (z-score)” value [39] was -0.512. For the same binder, the “glycan array binding signal (z-score)” value [40] was -0.024, the “glycan array binding signal (z-score)” value [41] was -0.492 and the “glycan array binding signal (z-score)” value [42] was 0.685. For the same binder, the “glycan array binding signal (z-score)” value [43] was -0.45, the “glycan array binding signal (z-score)” value [44] was 2.12 and the “glycan array binding signal (z-score)” value [45] was -0.282.

Source: the supplement of paper PMC8728848
